Source: PubChem BioAssay (NCI)
“And” between values parts separate entries of the source, which are not always exact repeats. Equal values may be shown once.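 Protocol summary: plate cells (96-well), add compound at 5 concentrations, incubate 48 h, interpolate endpoints linearly. The concentration for 50% growth inhibition is given as GI50. TGI is the concentration that stops growth completely.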

System: NCI-H322M lung
Assay: DTP human tumour cell line panel, 48 h

Structure (SMILES)	GI50	TGI
CN1C(=O)[C@]23SSC1(C)C(=O)N2[C@H]1Nc2ccccc2C1([C@@]12c4ccccc4N[C@@H]1N1C(=O)C4(C)SS[C@]1(C(=O)N4C)[C@H]2O)[C@@H]3O (some centres undefined)	0.323 µM and 1.34 µM	0.878 µM and 3.4 µM
O=S(=O)(Nc1ccc(I)c(Cl)c1)c1ccc(-c2cnc(C3CC3)o2)cc1	5.6 µM	19.2 µM
